# In paper PMC4336329 (PLoS ONE, 2015):
# About 2,200 (0.71%) of roughly 310,000 compounds showed an effect of 50% or more. Effects have a minus sign here. Some of the results follow.
# Target: human ether-à-go-go-related gene (hERG) potassium channel (human, UniProt Q12809)
# Experiment: primary screen, population patch clamp on CHO cells stably expressing hERG
# human ether-à-go-go-related gene (hERG) potassium channel, sequence (Q12809 whole entry, looked up): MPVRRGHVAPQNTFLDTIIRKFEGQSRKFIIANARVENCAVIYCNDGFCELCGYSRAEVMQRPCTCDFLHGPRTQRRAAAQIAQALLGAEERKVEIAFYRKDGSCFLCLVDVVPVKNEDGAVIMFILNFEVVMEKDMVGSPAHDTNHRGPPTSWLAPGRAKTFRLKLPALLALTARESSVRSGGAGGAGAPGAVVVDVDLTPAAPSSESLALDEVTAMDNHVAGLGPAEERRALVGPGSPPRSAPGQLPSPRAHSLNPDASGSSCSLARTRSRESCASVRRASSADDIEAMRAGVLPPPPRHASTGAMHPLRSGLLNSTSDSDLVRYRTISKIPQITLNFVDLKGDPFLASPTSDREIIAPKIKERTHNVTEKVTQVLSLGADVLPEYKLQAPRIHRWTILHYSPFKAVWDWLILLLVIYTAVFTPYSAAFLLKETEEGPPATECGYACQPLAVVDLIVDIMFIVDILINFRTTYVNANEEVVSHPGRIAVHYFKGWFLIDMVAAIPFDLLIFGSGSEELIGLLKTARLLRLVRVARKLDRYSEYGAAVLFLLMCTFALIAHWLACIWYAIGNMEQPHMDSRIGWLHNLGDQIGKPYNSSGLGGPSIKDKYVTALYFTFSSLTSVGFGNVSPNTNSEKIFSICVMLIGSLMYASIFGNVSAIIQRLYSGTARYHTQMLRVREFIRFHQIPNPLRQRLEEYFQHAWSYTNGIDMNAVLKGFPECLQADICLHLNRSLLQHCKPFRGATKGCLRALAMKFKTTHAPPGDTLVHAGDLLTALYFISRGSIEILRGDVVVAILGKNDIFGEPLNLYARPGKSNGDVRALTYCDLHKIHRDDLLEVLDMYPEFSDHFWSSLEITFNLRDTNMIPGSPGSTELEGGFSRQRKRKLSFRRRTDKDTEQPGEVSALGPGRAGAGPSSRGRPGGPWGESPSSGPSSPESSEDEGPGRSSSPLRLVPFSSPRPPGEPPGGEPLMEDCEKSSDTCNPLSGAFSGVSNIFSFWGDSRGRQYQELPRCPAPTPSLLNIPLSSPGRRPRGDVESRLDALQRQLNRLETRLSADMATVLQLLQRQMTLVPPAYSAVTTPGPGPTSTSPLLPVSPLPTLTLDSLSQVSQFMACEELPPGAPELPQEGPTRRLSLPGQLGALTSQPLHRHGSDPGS
row,SMILES,"hERG current change (%, negative = inhibition) at 1uM"
1,O=C(O)C1C2CCC(C2)C1C(=O)Nc1ccc(Cl)c(Cl)c1 (stereo not drawn),12.4%
2,O=C(N/N=C/c1cccc2nccnc12)c1ccncc1,6.61%
3,CC(C)(C)NC(=O)C(c1cccs1)N(C(=O)c1csnn1)c1cccc(F)c1 (stereo not drawn),6.23%
4,C[C@H](NC(=O)N1CCC(Cc2ccccc2)CC1)C(=O)O,13.5%
5,Cc1ccc(S(=O)(=O)Nc2ccc3cn[nH]c3c2)cc1,10.6%
6,Cc1nc2ccccc2c(=O)n1-c1cccc(O)c1,16.8%
7,CC(C)C(c1nnnn1Cc1cccs1)N1CCN(C2CCCC2)CC1 (stereo not drawn),-7.38%
8,CCCN1CCC(=O)N(CCSc2ccc(OC)cc2)CC1,-11.5%
9,CCOc1ccc(CCNC(=O)C2CSC3(C)CCC(=O)N23)cc1OCC (stereo not drawn),12.2%
10,COc1ccc(C2(O)C(=O)Nc3ccc(C)cc32)cc1OC (stereo not drawn),11.8%
11,Cn1c(=O)c(C(=O)CSc2nnc(Nc3ccccc3)s2)c(N)n(Cc2ccccc2)c1=O,13.2%
12,CCOc1ccccc1N1CCN(Cc2c(C)n(C)n(-c3ccccc3)c2=O)CC1,-2.29%
13,O=S(=O)(c1cccc(Br)c1)N1CCN(c2ccnc3cc(Cl)ccc23)CC1,10.2%
14,CS(=O)(=O)N(CC(=O)N1CCCCC1)c1ccc(Cl)c(C(F)(F)F)c1,4.55%
15,C=CCc1ccc(OCCCCNC(C)CC)c(OC)c1.O=C(O)C(=O)O (stereo not drawn),4.58%
16,O=C(COC(=O)c1cc[n+]([O-])cc1)Nc1ccc(Cl)cc1[N+](=O)[O-],28.8%
17,O=S(=O)(c1ccc(Br)cc1)N1CCn2c(nc3ccccc32)C1,-0.37%
18,O=C(Nc1ccc2nc(SCc3ccc(Cl)cc3)sc2c1)c1ccccc1C(=O)N1CCOCC1,16.8%
19,Cc1ccc(S(=O)(=O)N2CCCCC2)cc1NC(=O)CSc1ccc2c(c1)OCCO2,12.6%
20,Cc1ccc(NC(=O)C2CC(=O)Nc3ncnn32)cc1Cl (stereo not drawn),1.94%
21,CCc1ccc(CCC(=O)Nc2ccc(C(=O)O)cc2)o1,12.4%
22,Cc1cc(NC(=O)Nc2cccc(Cl)c2)n(-c2ccccc2)n1,10.8%

row,SMILES,"hERG current change (%, negative = inhibition) at 1uM"
1,CC(C)C(C(=O)NC1CCCC1)N(Cc1ccco1)C(=O)CNS(=O)(=O)c1ccccc1 (stereo not drawn),16.6%
2,CSc1nc(C)c2c(n1)N(c1ccc(C(F)(F)F)cc1)CC2,-1.79%
3,Cc1ccc(C(=O)Nc2ccc(F)cc2F)o1,7.28%
4,CCCC(=O)N1CCC(CCC(=O)NC2CC2)CC1,14.8%
5,O=[N+]([O-])c1ccc(N2CCSCC2)cc1O,14.1%
6,CC(=O)N1CCC(N(CCN2CCOCC2)C(=S)Nc2c(C)cccc2C)CC1,15.4%
7,Cc1ccc(N=Nc2c(=O)[nH]n3c(=O)cc(C)[nH]c23)cc1,16.6%
8,Cc1cccc(Oc2ccc(C(=O)NC3CCSC3=O)cn2)c1C (stereo not drawn),12%
9,COc1cccc(CNC(=O)Cc2csc(NC(=O)Nc3ccccc3OC)n2)c1,13.3%
10,CCOC(=O)c1c(NC(=S)N2CCOCC2)sc2c1CCN(C(=O)OCC)C2,5.16%
11,COc1ccc(CNC(=O)c2sc3nc4c(c(C(F)(F)F)c3c2N)CCC4)cc1OC,6.92%
12,CC1(C)Cc2cccc(OCC(=O)OCc3nnc(-c4ccccc4)o3)c2O1,7.26%
13,COc1cccc(N2CCN(S(=O)(=O)c3ccc(CN4C(=O)c5cccnc5C4=O)cc3)CC2)c1,17.6%
14,CCCc1ccc(OCC(=O)NNC(=O)c2cccnc2)cc1,-3.42%
15,Cl.Fc1ccc(COc2ccc(Br)cc2CNCC2CCCO2)cc1 (stereo not drawn),-39.7%
16,O=S(=O)(c1ccccc1)c1cnn(-c2ccccc2)c1-c1ccc(Cl)cc1,7.48%
17,CCC(C)NS(=O)(=O)c1ccc(OCC(=O)Nc2ccc3c(c2)OCO3)cc1 (stereo not drawn),16.7%
18,O=C(NC(NC(=S)N1CCOCC1)C(Cl)(Cl)Cl)c1ccc(Cl)cc1 (stereo not drawn),-8.3%
19,S=c1[nH]nc(Cc2ccccc2)n1-c1cccc2ccccc12,15.1%
20,CCSc1nnc(NC(=O)CCNS(=O)(=O)c2cc(Br)cnc2N)s1,6.73%
21,C/C(=N\NS(=O)(=O)c1ccc(Cl)cc1)c1ccc(O)cc1,-9.61%
22,CCOC(=O)CN(C(=O)CSc1nnc(CNc2ccc(C)cc2C)o1)c1ccccc1,2.5%

row,SMILES,"hERG current change (%, negative = inhibition) at 1uM"
1,Cc1cc(C)nc(NS(=O)(=O)c2ccc(NC(=S)NC(=O)c3cccnc3)cc2)n1,16.6%
2,CCOc1cc(CNCCc2ccc(S(N)(=O)=O)cc2)cc(Cl)c1OCc1ccccc1.Cl,-8.24%
3,O=[N+]([O-])c1ccc(C(=S)N2CCN(Cc3ccccc3)CC2)cc1,-32.6%
4,CCCn1c(N)c(C(c2ccc(OC)cc2)N2CCN(c3ccccc3)CC2)c(=O)[nH]c1=O (stereo not drawn),7.33%
5,CCN(CC)CCNC(=S)Nc1ccc2nc3n(c(=O)c2c1)CCCCC3,-0.738%
6,CC1CCN(c2c(NCc3ccc(C(=O)N4c5ccccc5CC4C)cc3)c(=O)c2=O)CC1 (stereo not drawn),-3.27%
7,CCc1ccc(NC(=O)c2cc(CC(C)C)on2)cc1,9.61%
8,CN(C)S(=O)(=O)c1ccc(N2CCCC2)c(C(=O)NCC2CCCO2)c1 (stereo not drawn),16.5%
9,CCOC(=O)c1sc(NC(=O)CN2C(=O)C3CC=CCC3C2=O)nc1C (stereo not drawn),11.7%
10,Cc1cccn2c(=O)c(/C=C(\C#N)C(=O)NCc3ccco3)c(N3CCC(C(N)=O)CC3)nc12,4.98%
11,Cc1c(Cl)cccc1NC(=O)NCc1cccnc1,16.7%
12,COc1cccc(NC(=O)c2cc(-c3ccco3)nc3ccccc23)c1,12.2%
13,COC(=O)c1ccccc1NC(=S)N1CCC(N2CCCCC2)CC1,8.49%
14,Cc1ccc(S(=O)(=O)N2CCN(CC(=O)N/N=C/c3cc([N+](=O)[O-])ccc3Cl)CC2)cc1,2.85%
15,CCN1CCN(C(=O)C2CCC(CNS(=O)(=O)c3ccccc3)CC2)CC1 (stereo not drawn),-2.27%
16,O=C(C1=C[C@@H](c2ccc(C(F)(F)F)cc2)C[C@@H](OCCCCO)O1)N1CCN(Cc2ccccc2)CC1,-1.72%
17,Cc1ccc(-n2c(Cn3nc(C(F)F)cc3C(F)F)n[nH]c2=S)cc1,8.89%
18,CCCCNC(=O)NS(=O)(=O)c1ccc(C(=O)OC(C)C)o1,16.6%
19,CCC(C)C(NS(=O)(=O)c1ccc(C)cc1)C(=O)N1CCOCCOCCOCC1 (stereo not drawn),13.3%
20,COc1cccc(OC)c1OCCCOc1ccc([N+](=O)[O-])cc1Cl,17.2%
21,Cc1ccccc1OCCNC(=O)c1ccccc1Sc1ccccc1C#N,11.6%
22,C=CCNC(=S)N1CCN(CCN=Cc2c(C)[nH]n(-c3ccc([N+](=O)[O-])cc3)c2=O)CC1,-27.3%

row,SMILES,"hERG current change (%, negative = inhibition) at 1uM"
1,O=C(NNC(=O)c1ccc([N+](=O)[O-])o1)c1ccccc1,5.99%
2,CC1(C)CN(c2cccc(C#N)c2)C1=O,15%
3,Cc1ccc(Sc2ccc(CN3CCCC3)cc2[N+](=O)[O-])cc1,-3.61%
4,O=C(Nc1ccccc1)c1ccco1,13.3%
5,CC1CCN(CC(=O)Nc2ccc(S(=O)(=O)N3CCCC(C)C3)cc2)CC1 (stereo not drawn),10.5%
6,Cc1ccc(CSc2nc3c(c(=O)[nH]2)C(c2ccncc2)C2=C(CCCC2=O)N3)cc1 (stereo not drawn),18.6%
7,CCOc1cc(-c2nc3c(C)cccn3c2NCC2CCCO2)ccc1O.CNC.Cl (stereo not drawn),-11.7%
8,Cc1noc(NS(=O)(=O)c2ccc(NC(=O)c3cc(=O)c4ccccc4o3)cc2)c1C,5.79%
9,COc1ccc(S(=O)(=O)N2CCCC2C(=O)Nn2cnnc2)cc1 (stereo not drawn),12.6%
10,CCc1ccc(-c2nc(CSCC(=O)NC3CC3)c(C)o2)cc1,1%
11,COc1ccccc1C(=O)O/N=C(/C)c1ccc(N2C(=O)C3CCCCC3C2=O)cc1 (stereo not drawn),0.905%
12,COCc1cc(C)nc(NCCO)c1C#N,10.6%
13,O=C(/C=C/c1cccc([N+](=O)[O-])c1)NCCSCc1ccco1,3.79%
14,CSc1ccc(/C=C/C(=O)OCC(=O)NC(C)C)cc1,19.3%
15,CC(=O)c1ccc(N2CCN(C(=O)c3cc(-c4ccncc4)nc4ccc(Br)cc34)CC2)cc1,5.44%
16,Cc1ccccc1NC(=O)/C(C#N)=C/c1ccsc1,1.22%
17,CCC1(CC)C(=O)Nc2ccccc21,17.8%
18,Cc1ccccc1N1CCN(CC(=O)Nc2ccccc2C(=O)NC2CC2)CC1,-35.4%
19,Cc1ccc(NC(=O)c2ccccc2Br)cc1S(=O)(=O)N(C)C,9.95%
20,COc1ccccc1NC(=O)c1ccc(S(=O)(=O)N2CCCC(C)C2)cc1 (stereo not drawn),11.1%
21,NC(=O)c1ccsc1NC(=O)COc1ccccc1,-0.384%
